Experimental data as given in publication PMC5670238.
These are yes or no findings as the source states them, for the method shown. Binding seen in cells or lysates may run through a third protein. Some entries that bind do so weakly or less than the wild type. Tags and fused reporters may be left off the sequences shown. Values belong to the binder of their own block, whether it stands above or below them.

Key:
[1] = biological target: T1, GFP-Aub (Aubergine expressed from the UASp-GFP-Aub transgene with nos-Gal4) (Drosophila) (UniProt O76922); test: co-IP; anti-GFP (3E6) on Dynabeads protein A; extracts of UASp-GFP-Aub/nos-Gal4 0-2 h embryos in DXB-150 (25 mM Hepes-KOH pH 6.8, 150 mM NaCl, 0.1% Triton X-100), with RNase A or with RNase inhibitor; 3 h at 4 °C; western blot; w1118 embryos as mock
T1 sequence: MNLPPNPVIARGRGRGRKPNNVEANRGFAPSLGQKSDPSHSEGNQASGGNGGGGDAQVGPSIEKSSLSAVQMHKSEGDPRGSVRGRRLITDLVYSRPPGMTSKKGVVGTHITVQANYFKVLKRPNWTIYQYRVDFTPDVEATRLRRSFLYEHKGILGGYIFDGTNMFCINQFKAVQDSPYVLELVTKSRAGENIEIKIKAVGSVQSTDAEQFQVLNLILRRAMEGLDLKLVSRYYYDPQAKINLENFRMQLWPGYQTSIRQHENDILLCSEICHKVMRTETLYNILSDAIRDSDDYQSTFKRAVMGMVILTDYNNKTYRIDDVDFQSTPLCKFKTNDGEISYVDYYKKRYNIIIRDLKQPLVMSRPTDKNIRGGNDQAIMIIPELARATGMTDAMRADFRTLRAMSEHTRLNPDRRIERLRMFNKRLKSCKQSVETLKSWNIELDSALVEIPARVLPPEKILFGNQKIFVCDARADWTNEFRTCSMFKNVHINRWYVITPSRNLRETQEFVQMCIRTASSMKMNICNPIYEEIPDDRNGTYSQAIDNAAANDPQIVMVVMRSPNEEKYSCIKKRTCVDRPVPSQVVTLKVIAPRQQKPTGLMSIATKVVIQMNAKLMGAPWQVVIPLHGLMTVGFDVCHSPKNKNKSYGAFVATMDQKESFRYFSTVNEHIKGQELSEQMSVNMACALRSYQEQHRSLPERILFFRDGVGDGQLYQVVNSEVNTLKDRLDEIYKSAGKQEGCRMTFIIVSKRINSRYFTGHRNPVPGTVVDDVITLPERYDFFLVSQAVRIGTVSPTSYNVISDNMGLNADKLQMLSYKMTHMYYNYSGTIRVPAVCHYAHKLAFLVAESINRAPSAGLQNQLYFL

[2] = biological target: T2, GST-Wisp(1-713) (Drosophila) (UniProt Q9VYS4); test: pull-down; GST fusion proteins immobilised on glutathione-Sepharose 4B beads; in vitro translated HA-Aub fragments; 45 min at room temperature then 45 min at 4 °C; 50 mM Hepes pH 7.5, 600 mM NaCl, 0.2 mM EDTA, 1 mM DTT, 0.5% Nonidet P-40, 0.2 μg/μL RNase A; western blot with anti-HA; only the target purified
T2 sequence: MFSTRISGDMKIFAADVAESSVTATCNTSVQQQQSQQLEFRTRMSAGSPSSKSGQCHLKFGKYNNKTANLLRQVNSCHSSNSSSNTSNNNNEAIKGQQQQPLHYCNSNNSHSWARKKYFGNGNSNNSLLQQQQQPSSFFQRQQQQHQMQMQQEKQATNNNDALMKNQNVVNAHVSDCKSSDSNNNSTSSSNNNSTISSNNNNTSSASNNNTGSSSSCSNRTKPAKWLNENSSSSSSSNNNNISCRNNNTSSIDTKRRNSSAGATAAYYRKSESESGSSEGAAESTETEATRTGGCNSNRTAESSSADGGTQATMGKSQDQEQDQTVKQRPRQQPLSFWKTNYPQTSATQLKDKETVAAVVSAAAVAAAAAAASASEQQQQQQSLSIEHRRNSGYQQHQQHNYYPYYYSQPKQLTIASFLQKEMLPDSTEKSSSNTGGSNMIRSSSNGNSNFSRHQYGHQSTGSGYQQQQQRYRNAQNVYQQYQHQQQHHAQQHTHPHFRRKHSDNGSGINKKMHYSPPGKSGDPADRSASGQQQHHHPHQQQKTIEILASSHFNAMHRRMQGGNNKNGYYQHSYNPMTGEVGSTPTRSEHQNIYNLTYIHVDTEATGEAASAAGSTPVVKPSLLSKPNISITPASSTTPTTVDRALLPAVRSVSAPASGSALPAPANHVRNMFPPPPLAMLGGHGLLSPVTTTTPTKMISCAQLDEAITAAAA

[3] = biological target: T3, GST-Wisp(11-547) (Drosophila) (UniProt Q9VYS4); test: as above
T3 sequence: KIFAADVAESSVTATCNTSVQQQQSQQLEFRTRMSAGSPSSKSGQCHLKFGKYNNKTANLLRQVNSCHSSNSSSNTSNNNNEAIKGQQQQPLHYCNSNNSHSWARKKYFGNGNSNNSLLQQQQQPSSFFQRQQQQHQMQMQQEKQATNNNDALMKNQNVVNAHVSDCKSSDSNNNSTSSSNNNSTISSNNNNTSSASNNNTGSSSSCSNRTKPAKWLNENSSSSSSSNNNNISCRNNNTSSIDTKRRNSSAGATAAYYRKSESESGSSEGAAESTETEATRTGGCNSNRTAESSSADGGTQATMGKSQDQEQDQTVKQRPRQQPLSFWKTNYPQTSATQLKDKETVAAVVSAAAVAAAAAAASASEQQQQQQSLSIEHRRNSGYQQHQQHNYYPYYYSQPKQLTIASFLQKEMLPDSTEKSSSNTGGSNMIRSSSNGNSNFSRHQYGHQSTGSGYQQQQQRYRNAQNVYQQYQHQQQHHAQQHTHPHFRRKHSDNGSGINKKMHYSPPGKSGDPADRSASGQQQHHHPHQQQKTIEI

[4] = biological target: T4, GST-Wisp(636-746) (Drosophila) (UniProt Q9VYS4); test: as above
T4 sequence: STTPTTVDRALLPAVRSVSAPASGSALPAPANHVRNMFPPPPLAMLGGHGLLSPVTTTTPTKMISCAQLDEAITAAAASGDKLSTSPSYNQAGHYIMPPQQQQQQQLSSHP

[5] = biological target: T5, GST-Wisp(702-1373) (Drosophila) (UniProt Q9VYS4); test: as above
T5 sequence: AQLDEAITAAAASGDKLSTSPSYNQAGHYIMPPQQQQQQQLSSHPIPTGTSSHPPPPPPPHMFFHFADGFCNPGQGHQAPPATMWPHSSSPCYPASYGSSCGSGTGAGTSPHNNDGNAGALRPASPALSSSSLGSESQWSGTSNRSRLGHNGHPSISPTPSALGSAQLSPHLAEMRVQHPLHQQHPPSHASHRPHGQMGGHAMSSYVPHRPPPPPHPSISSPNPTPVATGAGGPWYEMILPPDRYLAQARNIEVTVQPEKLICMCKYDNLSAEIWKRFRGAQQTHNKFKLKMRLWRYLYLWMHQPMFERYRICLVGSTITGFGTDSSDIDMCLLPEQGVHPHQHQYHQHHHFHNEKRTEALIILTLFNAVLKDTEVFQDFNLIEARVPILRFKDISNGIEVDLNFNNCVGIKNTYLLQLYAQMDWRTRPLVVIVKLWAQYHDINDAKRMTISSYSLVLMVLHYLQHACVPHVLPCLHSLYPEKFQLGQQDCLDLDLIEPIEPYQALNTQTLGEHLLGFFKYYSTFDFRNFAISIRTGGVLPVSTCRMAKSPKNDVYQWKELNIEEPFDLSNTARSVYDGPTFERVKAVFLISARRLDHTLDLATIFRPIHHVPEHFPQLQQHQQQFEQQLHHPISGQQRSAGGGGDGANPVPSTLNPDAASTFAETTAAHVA

binding [1]: binds
B1: Wispy (Wisp), germline-specific non-canonical poly(A) polymerase (enzyme, UniProt Q9VYS4 1-1373)
chain: MFSTRISGDMKIFAADVAESSVTATCNTSVQQQQSQQLEFRTRMSAGSPSSKSGQCHLKFGKYNNKTANLLRQVNSCHSSNSSSNTSNNNNEAIKGQQQQPLHYCNSNNSHSWARKKYFGNGNSNNSLLQQQQQPSSFFQRQQQQHQMQMQQEKQATNNNDALMKNQNVVNAHVSDCKSSDSNNNSTSSSNNNSTISSNNNNTSSASNNNTGSSSSCSNRTKPAKWLNENSSSSSSSNNNNISCRNNNTSSIDTKRRNSSAGATAAYYRKSESESGSSEGAAESTETEATRTGGCNSNRTAESSSADGGTQATMGKSQDQEQDQTVKQRPRQQPLSFWKTNYPQTSATQLKDKETVAAVVSAAAVAAAAAAASASEQQQQQQSLSIEHRRNSGYQQHQQHNYYPYYYSQPKQLTIASFLQKEMLPDSTEKSSSNTGGSNMIRSSSNGNSNFSRHQYGHQSTGSGYQQQQQRYRNAQNVYQQYQHQQQHHAQQHTHPHFRRKHSDNGSGINKKMHYSPPGKSGDPADRSASGQQQHHHPHQQQKTIEILASSHFNAMHRRMQGGNNKNGYYQHSYNPMTGEVGSTPTRSEHQNIYNLTYIHVDTEATGEAASAAGSTPVVKPSLLSKPNISITPASSTTPTTVDRALLPAVRSVSAPASGSALPAPANHVRNMFPPPPLAMLGGHGLLSPVTTTTPTKMISCAQLDEAITAAAASGDKLSTSPSYNQAGHYIMPPQQQQQQQLSSHPIPTGTSSHPPPPPPPHMFFHFADGFCNPGQGHQAPPATMWPHSSSPCYPASYGSSCGSGTGAGTSPHNNDGNAGALRPASPALSSSSLGSESQWSGTSNRSRLGHNGHPSISPTPSALGSAQLSPHLAEMRVQHPLHQQHPPSHASHRPHGQMGGHAMSSYVPHRPPPPPHPSISSPNPTPVATGAGGPWYEMILPPDRYLAQARNIEVTVQPEKLICMCKYDNLSAEIWKRFRGAQQTHNKFKLKMRLWRYLYLWMHQPMFERYRICLVGSTITGFGTDSSDIDMCLLPEQGVHPHQHQYHQHHHFHNEKRTEALIILTLFNAVLKDTEVFQDFNLIEARVPILRFKDISNGIEVDLNFNNCVGIKNTYLLQLYAQMDWRTRPLVVIVKLWAQYHDINDAKRMTISSYSLVLMVLHYLQHACVPHVLPCLHSLYPEKFQLGQQDCLDLDLIEPIEPYQALNTQTLGEHLLGFFKYYSTFDFRNFAISIRTGGVLPVSTCRMAKSPKNDVYQWKELNIEEPFDLSNTARSVYDGPTFERVKAVFLISARRLDHTLDLATIFRPIHHVPEHFPQLQQHQQQFEQQLHHPISGQQRSAGGGGDGANPVPSTLNPDAASTFAETTAAHVA

binding [2]: binds
binding [3]: no binding
binding [4]: binds
binding [5]: binds
B2: HA-Aub(1-482) (domain or fragment, UniProt O76922 1-482)
chain: MNLPPNPVIARGRGRGRKPNNVEANRGFAPSLGQKSDPSHSEGNQASGGNGGGGDAQVGPSIEKSSLSAVQMHKSEGDPRGSVRGRRLITDLVYSRPPGMTSKKGVVGTHITVQANYFKVLKRPNWTIYQYRVDFTPDVEATRLRRSFLYEHKGILGGYIFDGTNMFCINQFKAVQDSPYVLELVTKSRAGENIEIKIKAVGSVQSTDAEQFQVLNLILRRAMEGLDLKLVSRYYYDPQAKINLENFRMQLWPGYQTSIRQHENDILLCSEICHKVMRTETLYNILSDAIRDSDDYQSTFKRAVMGMVILTDYNNKTYRIDDVDFQSTPLCKFKTNDGEISYVDYYKKRYNIIIRDLKQPLVMSRPTDKNIRGGNDQAIMIIPELARATGMTDAMRADFRTLRAMSEHTRLNPDRRIERLRMFNKRLKSCKQSVETLKSWNIELDSALVEIPARVLPPEKILFGNQKIFVCDARADWTNEFR

binding [2]: no binding
binding [3]: no binding
binding [4]: no binding
binding [5]: no binding
B3: HA-Aub(476-866) (domain or fragment, UniProt O76922 476-866)
chain: DWTNEFRTCSMFKNVHINRWYVITPSRNLRETQEFVQMCIRTASSMKMNICNPIYEEIPDDRNGTYSQAIDNAAANDPQIVMVVMRSPNEEKYSCIKKRTCVDRPVPSQVVTLKVIAPRQQKPTGLMSIATKVVIQMNAKLMGAPWQVVIPLHGLMTVGFDVCHSPKNKNKSYGAFVATMDQKESFRYFSTVNEHIKGQELSEQMSVNMACALRSYQEQHRSLPERILFFRDGVGDGQLYQVVNSEVNTLKDRLDEIYKSAGKQEGCRMTFIIVSKRINSRYFTGHRNPVPGTVVDDVITLPERYDFFLVSQAVRIGTVSPTSYNVISDNMGLNADKLQMLSYKMTHMYYNYSGTIRVPAVCHYAHKLAFLVAESINRAPSAGLQNQLYFL
